# Reference: the supplement of paper PMC10338343
# ± gives the standard deviation. The list shows a part of the results, in another mix than the full data.
# System: MIWI (PIWIL1) piRISC loaded with L1MC piRNA (30 nt)
# Experiment: pre-steady-state target cleavage rate (min^-1); MIWI and MILI are mouse PIWI proteins and EfPiwi is from a freshwater sponge; tags in brackets are library labels; higher = faster piRNA-guided slicing of the target
# Conditions: guide: L1MC piRNA 5'p-UAACUAAAUACUAUGCAAGCUGUAGGUCCU
# In short: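 A burst-and-steady-state fit was used to obtain the pre-steady-state cleavage rate. The input data were sequencing reads of uncleaved targets, normalised to depth and to weakly complementary targets, from a […] transcribed, DNA-blocked target RNA library mixed with 1 nM active affinity-purified piRISC holding one synthetic guide, with or without 500 nM GTSF1 partner protein, in HEPES–potassium acetate buffer at 33 °C for 0–8 or 0–960 min. Three trials were pooled and k3 was capped at 0.0001 min^-1.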
# [1] = auxiliary factor: 500 nM mouse GTSF1
# [2] = auxiliary factor: none (no GTSF1)
# 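Also: 1 nM active piRISC with 0.1 nM target library at 33 °C single turnover.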
Sequence,pre-steady-state target cleavage rate [1],pre-steady-state target cleavage rate [2]
UCCUGGAUCAGCUUGCAUAGAAUUUAGUUA,0.258 ± 0.028,0.0291 ± 0.0088
AGGACCUACAGCUUGGAUAGUAUUUUGUUA,1.05 ± 0.077,0.0416 ± 0.0083
UCGACCUACAGCAUGCAUAGUAAUUAGUUA,0.8 ± 0.042,0.00983 ± 0.0022
UGGACCUACAGCUAGCAUACUAUUUAGUUA,0.383 ± 0.017,0.0162 ± 0.0039
UGGACCUACAGCUUGCAUUGUAUUUAGAAA,0.147 ± 0.024,0.00674 ± 0.0022
UCCUGGUACAGCUUGCAUAGUAUUUAGUGA,0.289 ± 0.036,0.0296 ± 0.0058
UCCUCCUUCAGCUUGCAUAGUAUUUUGUUA,0.637 ± 0.047,0.0216 ± 0.004
AGGACCUACAGCUUGCAUAGAAUUUAGUAA,0.556 ± 0.062,0.0293 ± 0.0094
UGGACCUACAGCUUGCAAUGUAUUUAGUUA,0.452 ± 0.047,0.00626 ± 0.0029
UCCUGGUACAGCUUGCAUAGUAAUUACUUA,0.0784 ± 0.02,0.0071 ± 0.0024
UCGACCUACAGCUUGCAUAGUAUUUAGUGUA,0.682 ± 0.047,0.038 ± 0.0081
UCCACCUACAGGAUGCAUAGUAUUUAGUAA,0.866 ± 0.1,0.00483 ± 0.0013
UGGACCUACAGCUUGCAUAGUAAUUUGUUA,0.395 ± 0.04,0.0154 ± 0.0037
UCCUGCUACAGCUUGCUAAGUAUUUAGUUA,0.22 ± 0.024,0.00354 ± 0.0021
UCCUGGUACAGCUUGCAUAGUAUAUACUUA,0.0741 ± 0.022,0.0042 ± 0.0025
UCCACGUACAGCUUGCAUAGUAUAUAGUUA,0.693 ± 0.036,0.0318 ± 0.0064
UCCUGGUACAGCUUGCAUACUAUUUAGUUA,0.269 ± 0.041,0.0196 ± 0.0042
UGGACCAACAGCUUGCAUAGUAAUUAGUUA,0.986 ± 0.038,0.0398 ± 0.0096
UCCUCCUACAGCUUGCAUUGUAAUUAGUUA,0.468 ± 0.022,0.009 ± 0.0025
UCCUCCAACAGCUUGCUUAGUAUUUAGUUA,1.28 ± 0.054,0.0363 ± 0.0081
UCCUGGUACAGCUAGCAUAGUAUAUAGUUA,0.357 ± 0.048,0.00724 ± 0.0035
AGGACCUACAGCUUGCAUAGUAUUUACAUA,0.359 ± 0.056,0.0253 ± 0.0072
AGGACCUACAGCUUGCAUAGUUUAUAGUUA,0.16 ± 0.022,0.0173 ± 0.0056
AGGACCUACAGCUUGCAUACUAUAUAGUUA,0.31 ± 0.036,0.0173 ± 0.004
UGGACCUACAGGAUGCAUAGUAUUUAGAAA,0.291 ± 0.04,0.00285 ± 0.0024
UGGACCUACAGCUUGCAUACUAUUUAGUAA,0.127 ± 0.018,0.0142 ± 0.0041
UCCUGCUACAGCUAGCUUAGUAUUUAGUUA,0.747 ± 0.049,0.00673 ± 0.0015
UGGACCUACAGCAUGCAUAGUAUUUACAAA,0.276 ± 0.043,0.0036 ± 0.002

Sequence,pre-steady-state target cleavage rate [1],pre-steady-state target cleavage rate [2]
UCCUGGAACAGCUUGCAUUGUAUUUAGAUA,0.242 ± 0.025,0.0106 ± 0.0042
UCCUGGAACAGUCUUGCAUAGUAUUUAGUUA,0.82 ± 0.031,0.0422 ± 0.0092
UGGACCUACAGCUUGCAUAGUAUUUUCUUA,0.171 ± 0.027,0.0216 ± 0.0055
UCGACGUACUGCUUGCAUAGUAUUUAGUUA,1.13 ± 0.049,0.0599 ± 0.0094
AGGACCUACAGCUUGCAUAGUUUUUAGAAA,0.251 ± 0.035,0.00908 ± 0.0034
UCCACCUACAGACUUGCAUAGUAUUUAGUUA,0.606 ± 0.06,0.0272 ± 0.0043
UCGUCCUACAGCUUGCAUAGUAUUUAGAAA,0.469 ± 0.042,0.00751 ± 0.0029
UCCUGGUACACGUUGCAUAGUAUUUAGUUA,0.226 ± 0.05,0.00313 ± 0.0025
UCCUCCUACAGGUUGCAUAGUAUUUAGAAA,0.313 ± 0.036,0.0024 ± 0.0023
AGGACCUACAGCAUGCAAAGUAUUUAGUUA,1.11 ± 0.043,0.0157 ± 0.0037
UCCUCCUACAGCUUGCAUAGUAUUUAGAUUA,0.342 ± 0.031,0.0121 ± 0.0024
UCCUCCUACAGCUUGGAUAGUAUAUAGUUA,0.509 ± 0.04,0.0165 ± 0.0038
UGGACCUAGAGCUUGCAUUGUAUUUAGUUA,0.848 ± 0.05,0.0259 ± 0.0071
UCCUGGUACAGGUUGCAUAGUAUAUAGUUA,0.853 ± 0.2,0.0121 ± 0.0037
UCCUGCUUCAGCUUGCAUUGUAUUUAGUUA,0.991 ± 0.043,0.0287 ± 0.0069
UCCUGGAUGUCCUUGCAUAGUAUUUACUUA,0.0774 ± 0.014,0.00856 ± 0.0025
UCCUGGAAGAGCAUGCAUAGUAUUUAGUUA,0.57 ± 0.043,0.00937 ± 0.0025
UGGACCUACAGCUUGCAUAGUGUUUAGUUA,1.15 ± 0.047,0.0474 ± 0.0087
UCGACCUACUGCUUGCAUAGUAAUUAGUUA,0.847 ± 0.031,0.0259 ± 0.0058
UCCUCCUACAGCUUGCAUAGUAUUUCAGUUA,0.859 ± 0.093,0.012 ± 0.0034
UCCUCCUACAGCUAGCAUACUAUUUAGUUA,0.32 ± 0.024,0.0106 ± 0.0024
AGGACCUACAGCUUGCAUAGAAUUUACAAA,0.393 ± 0.061,0.00381 ± 0.0032
UCCUGGAACAGCUAGCAUAGUAUUUAGUUA,0.836 ± 0.027,0.022 ± 0.0049
UCCACCUACAGCUUGCAUAGUAUGUUAGUUA,0.315 ± 0.045,0.0117 ± 0.0026
UCCAGCUACAGCUAGCAUAGUAUUUAGUUA,0.714 ± 0.041,0.0136 ± 0.0023
UCCCCCUACAGCUUGCAUAGUAUUUAGUUA,1.28 ± 0.039,0.0819 ± 0.014
UCCUGCUAGCAGCUUGCAUAGUAUUUAGUUA,1.17 ± 0.079,0.0552 ± 0.0095
